# From the supplement of paper PMC8728848
# This is one part of the list.
# Tests used:
# Assay in all cases: glycan array binding signal (z-score within array); higher = stronger binding
# Details in all cases: glycan notation: IUPAC condensed, linker removed
# [1] = target: Gal6S(b1-4)Glc
# In short: (§1)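 The Consortium for Functional Glycomics database supplied 3228 glycan arrays, of which those lacking an available protein sequence were dropped. The binding signal, a within-array Z-score, was averaged across arrays of the same protein sequence and across linkers. Negative scores can be read as non-binding.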
# [2] = target: Gal6S(b1-4)Glc6S
# In short: as §1
# [3] = target: Gal6S(b1-4)GlcNAc
# In short: as §1
# [4] = target: GalNAc(a1-3)Gal
# In short: as §1
# [5] = target: GalNAc(a1-3)GalNAc
# In short: as §1
# [6] = target: GalNAc(b1-3)Gal(a1-4)Gal(b1-4)GlcNAc
# In short: as §1
# [7] = target: GalNAc(b1-4)GlcNAc
# In short: as §1
# [8] = target: Glc(a1-4)Glc
# In short: as §1
# [9] = target: Glc(a1-6)Glc(a1-6)Glc
# In short: as §1
# [10] = target: Glc(b1-4)Glc
# In short: as §1
# [11] = target: Glc(b1-6)Glc
# In short: as §1
# [12] = target: GlcA(b1-3)Gal
# In short: as §1
# [13] = target: GlcA(b1-6)Gal
# In short: as §1
# [14] = target: GlcNAc(a1-3)Gal(b1-4)GlcNAc
# In short: as §1
# [15] = target: GlcNAc(a1-6)Gal(b1-4)GlcNAc
# In short: as §1
# [16] = target: GlcNAc(b1-2)Gal(b1-3)GlcNAc
# In short: as §1
# [17] = target: GlcNAc(b1-2)Man(a1-3)[GlcNAc(b1-2)Man(a1-6)]Man(b1-4)GlcNAc(b1-4)GlcNAc
# In short: as §1
# [18] = target: GlcNAc(b1-3)Gal
# In short: as §1
# [19] = target: GlcNAc(b1-3)Gal(b1-3)GalNAc
# In short: as §1
# [20] = target: GlcNAc(b1-3)Gal(b1-4)Glc
# In short: as §1
# [21] = target: GlcNAc(b1-3)Gal(b1-4)GlcNAc
# In short: as §1
# [22] = target: GlcNAc(b1-3)Gal(b1-4)GlcNAc(b1-3)Gal(b1-4)GlcNAc
# In short: as §1
# [23] = target: GlcNAc(b1-3)GalNAc
# In short: as §1
# [24] = target: GlcNAc(b1-3)[GlcNAc(b1-4)][GlcNAc(b1-6)]GlcNAc
# In short: as §1
# [25] = target: GlcNAc(b1-3)[GlcNAc(b1-6)]Gal(b1-4)GlcNAc
# In short: as §1
# [26] = target: GlcNAc(b1-3)[GlcNAc(b1-6)]GlcNAc
# In short: as §1
# [27] = target: GlcNAc(b1-4)Gal(b1-4)GlcNAc
# In short: as §1
# [28] = target: GlcNAc(b1-4)GlcNAc(b1-4)GlcNAc
# In short: as §1
# [29] = target: GlcNAc(b1-4)GlcNAc(b1-4)GlcNAc(b1-4)GlcNAc(b1-4)GlcNAc
# In short: as §1
# [30] = target: GlcNAc(b1-4)GlcNAc(b1-4)GlcNAc(b1-4)GlcNAc(b1-4)GlcNAc(b1-4)GlcNAc
# In short: as §1
# [31] = target: GlcNAc(b1-4)[GlcNAc(b1-6)]GalNAc
# In short: as §1
# [32] = target: GlcNAc(b1-6)Gal(b1-4)GlcNAc
# In short: as §1
# [33] = target: GlcNAc(b1-6)GalNAc
# In short: as §1
# [34] = target: Kdn(a2-3)Gal(b1-3)GlcNAc
# In short: as §1
# [35] = target: Kdn(a2-3)Gal(b1-4)GlcNAc
# In short: as §1
# [36] = target: Man(a1-2)Man(a1-2)Man(a1-3)Man
# In short: as §1
# [37] = target: Man(a1-2)Man(a1-2)Man(a1-3)[Man(a1-2)Man(a1-3)[Man(a1-2)Man(a1-6)]Man(a1-6)]Man(b1-4)GlcNAc(b1-4)GlcNAc
# In short: as §1
# [38] = target: Man(a1-2)Man(a1-2)Man(a1-3)[Man(a1-2)Man(a1-6)[Man(a1-3)]Man(a1-6)]Man(b1-4)GlcNAc(b1-4)GlcNAc
# In short: as §1
# [39] = target: Man(a1-2)Man(a1-2)Man(a1-6)[Man(a1-3)]Man
# In short: as §1
# [40] = target: Man(a1-2)Man(a1-3)Man
# In short: as §1
# [41] = target: Man(a1-2)Man(a1-3)[Man(a1-2)Man(a1-6)]Man
# In short: as §1
# [42] = target: Man(a1-2)Man(a1-3)[Man(a1-3)[Man(a1-6)]Man(a1-6)]Man(b1-4)GlcNAc(b1-4)GlcNAc
# In short: as §1
# [43] = target: Man(a1-2)Man(a1-3)[Man(a1-6)]Man(a1-6)[Man(a1-2)Man(a1-3)]Man(b1-4)GlcNAc(b1-4)GlcNAc
# In short: as §1
# [44] = target: Man(a1-3)[Man(a1-6)]Man
# In short: as §1
# [45] = target: Man(a1-3)[Man(a1-6)]Man(a1-6)[Man(a1-3)]Man(b1-4)GlcNAc(b1-4)GlcNAc
# In short: as §1
binder,measurement,setting,value
"Onconase (Rana pipiens), P22069 (protein) QDWLTFQKKHITNTRDVDCDNIMSTNLFHCKDKNTFIYSRPEPVKAICKGIIASKNVLTTSEFYLSDCNVTSRPCKYKLKKSTNKFCVTCENQAPVHFVGVGSC",glycan array binding signal (z-score),[1],0.123
same,glycan array binding signal (z-score),[2],0.598
same,glycan array binding signal (z-score),[3],0.046
same,glycan array binding signal (z-score),[4],-0.222
same,glycan array binding signal (z-score),[5],-0.168
same,glycan array binding signal (z-score),[6],0.352
same,glycan array binding signal (z-score),[7],-0.519
same,glycan array binding signal (z-score),[8],-0.79
same,glycan array binding signal (z-score),[9],0.282
same,glycan array binding signal (z-score),[10],-2.4
same,glycan array binding signal (z-score),[11],0.027
same,glycan array binding signal (z-score),[12],0.506
same,glycan array binding signal (z-score),[13],-0.471
same,glycan array binding signal (z-score),[14],0.194
same,glycan array binding signal (z-score),[15],0.987
same,glycan array binding signal (z-score),[16],-0.449
same,glycan array binding signal (z-score),[17],0.914
same,glycan array binding signal (z-score),[18],1.22
same,glycan array binding signal (z-score),[19],0.289
same,glycan array binding signal (z-score),[20],-0.129
same,glycan array binding signal (z-score),[21],-1.06
same,glycan array binding signal (z-score),[22],-0.72
same,glycan array binding signal (z-score),[23],-0.84
same,glycan array binding signal (z-score),[24],0.372
same,glycan array binding signal (z-score),[25],-0.071
same,glycan array binding signal (z-score),[26],0.132
same,glycan array binding signal (z-score),[27],-0.317
same,glycan array binding signal (z-score),[28],-0.556
same,glycan array binding signal (z-score),[29],-1.57
same,glycan array binding signal (z-score),[30],0.007
same,glycan array binding signal (z-score),[31],-0.041
same,glycan array binding signal (z-score),[32],-0.698
same,glycan array binding signal (z-score),[33],-1.13
same,glycan array binding signal (z-score),[34],-0.468
same,glycan array binding signal (z-score),[35],-0.198
same,glycan array binding signal (z-score),[36],-0.008
same,glycan array binding signal (z-score),[37],0.632
same,glycan array binding signal (z-score),[38],0.799
same,glycan array binding signal (z-score),[39],0.941
same,glycan array binding signal (z-score),[40],-0.711
same,glycan array binding signal (z-score),[41],0.189
same,glycan array binding signal (z-score),[42],-0.116
same,glycan array binding signal (z-score),[43],-0.659
same,glycan array binding signal (z-score),[44],-0.675
same,glycan array binding signal (z-score),[45],0.361
